Data reported in the supplement of paper PMC3334620.
In all, about 33,000 sequences were measured (“E-score (-0.5 to 0.5)”: median about -0.011, highest 2% from about 0.28 on). The list shows a part of the results.

These sequences were tested against T1, Gcr1 (UniProt P07261) (assay: PBM E-score (8-mer binding enrichment) (E-score (-0.5 to 0.5)); higher = stronger / more preferred TF binding; most listed sequences are background and not binding sites). Conditions: protein concentration: 100 nM; construct: GST-full length.
T1 sequence: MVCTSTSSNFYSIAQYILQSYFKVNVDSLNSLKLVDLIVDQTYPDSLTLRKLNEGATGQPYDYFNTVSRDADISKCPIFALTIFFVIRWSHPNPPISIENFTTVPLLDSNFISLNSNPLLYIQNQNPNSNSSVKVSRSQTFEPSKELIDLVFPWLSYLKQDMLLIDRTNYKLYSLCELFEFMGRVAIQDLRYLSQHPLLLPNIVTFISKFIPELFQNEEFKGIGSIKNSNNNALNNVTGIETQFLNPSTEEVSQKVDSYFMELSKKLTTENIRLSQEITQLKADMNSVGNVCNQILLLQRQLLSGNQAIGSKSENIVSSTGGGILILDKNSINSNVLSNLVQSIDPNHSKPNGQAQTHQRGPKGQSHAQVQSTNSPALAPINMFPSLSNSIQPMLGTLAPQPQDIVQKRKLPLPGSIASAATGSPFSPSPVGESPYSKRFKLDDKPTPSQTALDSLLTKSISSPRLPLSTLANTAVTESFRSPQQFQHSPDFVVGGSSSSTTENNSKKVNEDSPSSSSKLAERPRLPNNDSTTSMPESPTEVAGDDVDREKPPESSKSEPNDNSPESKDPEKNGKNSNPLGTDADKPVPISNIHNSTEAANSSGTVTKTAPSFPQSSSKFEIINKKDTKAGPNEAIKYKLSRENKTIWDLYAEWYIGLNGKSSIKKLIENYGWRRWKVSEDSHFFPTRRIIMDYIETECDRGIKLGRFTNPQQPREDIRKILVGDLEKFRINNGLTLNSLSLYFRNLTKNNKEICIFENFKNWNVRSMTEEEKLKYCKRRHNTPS
Method in brief: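 Yeast transcription factors carrying a GST tag, as full-length proteins or DNA-binding domains, were produced by PURExpress in vitro transcription/translation. About 100-200 nM protein was applied to universal all-10-mer Agilent arrays, double-stranded by primer extension on fresh or once-stripped slides. Bound protein was detected with fluorescent anti-GST, and scans were normalised with masliner. The Universal PBM Analysis Suite gave each ungapped eight-base word, pooled with its reverse complement, an E-score, a modified Wilcoxon-Mann-Whitney statistic.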

| Sequence | PBM E-score |
| --- | --- |
| ATAATCGG | 0.088 |
| CGTCCCCC | -0.133 |
| ACGGTGTA | -0.213 |
| AGTCGTTA | -0.202 |
| TCCGTACA | -0.109 |
| ACAAAAAC | 0.0232 |
| GAACATAC | -0.0679 |
| GGCAACAC | 0.143 |
| AGGCAGTA | -0.0662 |
| TAACGAAA | 0.0964 |
| GTATCTAA | 0.16 |
| GAATGGCA | -0.0438 |
| CAGGAGGA | 0.0154 |
| CGCAGATA | 0.168 |
| ATCTCGAC | -0.031 |
| ACGAGCGA | -0.0353 |
| GACTACAA | -0.138 |
| ATTATGTA | 0.046 |
| ATCTTAGA | 0.15 |
| CACAGCGA | 0.04 |
| CCGTTACC | 0.0778 |
| ATACGCTA | 0.0157 |
| AGACGGAG | -0.0738 |
| GATATGAA | 0.163 |
| GTCGAATA | 0.046 |

| Sequence | PBM E-score |
| --- | --- |
| CATAATGG | 0.122 |
| ACTCTTCA | -0.15 |
| ACCGGTTG | 0.209 |
| CGTCTCTC | 0.0558 |
| ACTCCCCC | -0.283 |
| ACTTGAAC | -0.0446 |
| AAGTATAC | -0.116 |
| GTGACGCA | -0.184 |
| ACGTCTGG | -0.0669 |
| CACTAATG | 0.0443 |
| ACCAGTCT | -0.0823 |
| ATAAGGCC | -0.329 |
| AGTCGATA | -0.127 |
| AGATGGGA | 0.113 |
| AGCAATGC | -0.271 |
| AGACAGAT | 0.0319 |
| AACACGGC | -0.0258 |
| AGTCTGGG | -0.0397 |
| AACTCTTG | 0.0172 |
| TGGCTAAA | -0.0291 |
| GTAAAAAA | -0.0598 |
| GTGCGCCA | -0.0685 |
| AAACGAAG | 0.111 |
| CGACGTTC | -0.286 |
| GATCAAAA | 0.0608 |

| Sequence | PBM E-score |
| --- | --- |
| TGTCATAA | 0.109 |
| GCGACTCC | -0.133 |
| CTCTGCAA | -0.0101 |
| ATTCCTAA | 0.284 |
| GTGCGTGA | -0.00808 |
| AATGCGTA | 0.0382 |
| ACTCTTTA | -0.0543 |
| ACATCCTA | 0.166 |
| CAAGGCTA | -0.235 |
| CTCGCGCC | -0.166 |
| AGCGACTA | 0.117 |
| ATGCCGCC | -0.11 |
| CTTGCATC | -0.221 |
| AAAAGACC | -0.00226 |
| CATGCAAC | -0.0896 |
| CCAGCGAC | -0.0314 |
| CTAATAAC | 0.161 |
| AGTATAGG | 0.0498 |
| ACGGAAAT | -0.0723 |
| GAACGCAA | 0.0412 |
| ATCGTCGG | -0.119 |
| ACTCGTTC | -0.0676 |
| ACTGCGTC | -0.0392 |
| CTTGCGAA | 0.0573 |
| CGCAACTC | -0.0691 |

| Sequence | PBM E-score |
| --- | --- |
| GCGAGTCA | -0.212 |
| TAGCACCA | 0.323 |
| ACCCAGGT | 0.0419 |
| AACAAAAA | 0.12 |
| AGGTTAGG | 0.109 |
| AAAAGGTG | 0.215 |
| ATACTAGG | 0.122 |
| ATCACGCG | 0.00311 |
| AAGGGCCC | 0.00768 |
| AGAAGTTA | 0.0491 |
| CCCCCGAG | -0.0739 |
| AGGCCCGG | -0.216 |
| AGCGTACA | -0.155 |
| ATCATGGG | -0.0551 |
| ACCAGCGT | -0.00704 |
| CCCAATCG | -0.0423 |
| GATGATAA | 0.0119 |
| ATTCAAGG | -0.113 |
| AACTGAGA | -0.121 |
| CACAAGCA | 0.156 |
| GGGCAACA | 0.0933 |
| GAGTGTAC | -0.169 |
| GTAGCACA | -0.0396 |
| AAACTGGT | 0.178 |
| GACACTGA | -0.121 |

| Sequence | PBM E-score |
| --- | --- |
| CCTTGAAC | -0.294 |
| ACCAATCC | -0.0145 |
| ACAAGGCC | -0.215 |
| CTGATTTA | 0.0256 |
| AGCTGGAT | 0.119 |
| CTTATACA | 0.0877 |
| GGTAAGAC | -0.228 |
| CTCAAATA | 0.0926 |
| ACAATTAG | 0.205 |
| CCCGCACC | 0.118 |
| GATCATCC | -0.0802 |
| ATGTTCCG | -0.119 |
| AACCGGAT | 0.255 |
| CGGACGGA | -0.139 |
| GGGGTTAA | -0.0298 |
| AGAGTTTA | 0.0347 |
| CACGTCCG | -0.318 |
| AGAGACAT | 0.116 |
| AGTGACGA | 0.139 |
| GCCATGAC | -0.171 |
| GTAATTCA | 0.206 |
| ATGTACGA | -0.0468 |
| CAGGAACG | 0.118 |
| AAAAGCGT | -0.0175 |
| AAGCTATC | 0.0651 |

| Sequence | PBM E-score |
| --- | --- |
| ACCTCCAG | -0.133 |
| CGACAGGC | -0.135 |
| ACGGGTAG | -0.0238 |
| ATGAAGTG | 0.0228 |
| GTAACCGA | -0.0211 |
| ATCAGTGC | -0.049 |
| CTGAGAGA | -0.139 |
| ATGGTGTA | -0.0627 |
| GGAGCACA | -0.173 |
| AGCGCTCC | 0.0561 |
| AAAATTTG | 0.0315 |
| GGTGCGTA | 0.157 |
| CAAAAATC | -0.047 |
| ATGCTAAA | 0.111 |
| AGCGTAAA | 0.0979 |
| AACACGCG | 0.0183 |
| CATCTTGC | 0.123 |
| ACCGCAAT | 0.0212 |
| CCACAGCA | 0.0259 |
| AGATAACT | -0.24 |
| ATTTGCCA | -0.00458 |
| CATATGCC | -0.0924 |
| TCTCACCA | -0.0569 |
| GCGGATCA | -0.0729 |
| ATGGTTCG | -0.192 |

| Sequence | PBM E-score |
| --- | --- |
| GGTCAATA | -0.0501 |
| GAAGGTCC | -0.204 |
| ACACCTGG | 0.123 |
| TGGGTTAA | -0.0918 |
| ACGTTACC | -0.107 |
| CCAGGGAA | 0.0615 |
| GTGTCACA | -0.0101 |
| CGATGGGA | -0.0436 |
| GTTCCAGA | 0.257 |
| ATTCAATC | -0.0693 |
| GGGCCAAA | -0.0493 |
| CGTTGATA | 0.138 |
| GCACATCA | 0.0439 |
| AGGAGATG | 0.0682 |
| TAGACTAA | -0.134 |
| CACTGTGG | 0.141 |
| ACGTACAG | -0.174 |
| ACGACGCG | 0.0493 |
| GCAGCAGC | 0.307 |
| AGTGACTC | 0.00078 |
| ACCACGCA | -0.0497 |
| CATACGCC | 0.0292 |
| AGTTCTAA | -0.0873 |
| CCCCAATA | 0.0796 |
| AAACCATC | -0.0212 |

| Sequence | PBM E-score |
| --- | --- |
| AACCGACG | 0.0222 |
| CCGGAAGA | 0.043 |
| AGTAAGGC | -0.0549 |
| GAGTTGGC | -0.135 |
| AAAGGTCC | -0.113 |
| ACCTTGGA | -0.00292 |
| AGAGAGTG | -0.0865 |
| ACTTATGA | 0.0813 |
| GCTTTTTA | 0.0359 |
| CTGGATAA | 0.132 |
| ACGTGAGA | -0.0931 |
| AGGCCCCC | 0.133 |
| TAAGTCGA | -0.0789 |
| GTTCGATA | 0.0564 |
| AATCCCCG | 0.0568 |
| ATCCGGGC | 0.248 |
| AATTAATT | -0.113 |
| AGGACGTG | -0.284 |
| GTTCTCGA | -0.0256 |
| CTAGTGTC | -0.0816 |
| AACTTATT | 0.249 |
| AACGGTTA | -0.00858 |
| ACACTAGC | -0.0237 |
| AGACCACT | -0.00966 |
| AATAAGTC | -0.175 |

| Sequence | PBM E-score |
| --- | --- |
| GCCAGCGA | -0.0966 |
| CCATCAAC | -0.172 |
| AATAGTAT | 0.0931 |
| CAATGAAG | -0.293 |
| CTATGTTC | 0.0281 |
| AACAGAGA | -0.0971 |
| ATGGGGCC | -0.135 |
| CATGAAAA | 0.217 |
| GGGAACCC | 0.336 |
| CCGGCTCG | 0.0641 |
| CGACGAGA | -0.328 |
| GCCTGTAC | -0.0148 |
| CACTTCGC | -0.0699 |
| CGGGGGTC | -0.185 |
| AAATACAA | 0.19 |
| CGGACACG | 0.0963 |
| AACTGTAG | -0.147 |
| AAGTATCC | 0.145 |
| CACAACCA | 0.0206 |
